Out of some 360,000 compounds screened, about 520 (0.14%) were called active. Inconclusive means that the source gave no clear call. Such entries were picked first, then a sample of the others. Calls follow the shape of the dose curve; as a rule, active = well fitted inhibition curve with a large enough effect; inconclusive = small, poorly fitted or top-dose-only effect; inactive = no such curve, though single readings can be large or run the other way. No potency is given beside an inconclusive call; the fits are too rough.
Each compound was assayed against Rap guanine nucleotide exchange factor 3 (Homo sapiens) (UniProt O95398) (assay: qHTS for Antagonist of cAMP-regulated guanine nucleotide exchange factor 3 (EPAC1): primary screen). Details: EPAC1 GEF assay, Rap1b-BODIPY-GDP exchange fluorescence; activity change, negative = inhibition: at 115 µM (top of the series).
Sequence of UniProt O95398 (O95398 whole entry, looked up): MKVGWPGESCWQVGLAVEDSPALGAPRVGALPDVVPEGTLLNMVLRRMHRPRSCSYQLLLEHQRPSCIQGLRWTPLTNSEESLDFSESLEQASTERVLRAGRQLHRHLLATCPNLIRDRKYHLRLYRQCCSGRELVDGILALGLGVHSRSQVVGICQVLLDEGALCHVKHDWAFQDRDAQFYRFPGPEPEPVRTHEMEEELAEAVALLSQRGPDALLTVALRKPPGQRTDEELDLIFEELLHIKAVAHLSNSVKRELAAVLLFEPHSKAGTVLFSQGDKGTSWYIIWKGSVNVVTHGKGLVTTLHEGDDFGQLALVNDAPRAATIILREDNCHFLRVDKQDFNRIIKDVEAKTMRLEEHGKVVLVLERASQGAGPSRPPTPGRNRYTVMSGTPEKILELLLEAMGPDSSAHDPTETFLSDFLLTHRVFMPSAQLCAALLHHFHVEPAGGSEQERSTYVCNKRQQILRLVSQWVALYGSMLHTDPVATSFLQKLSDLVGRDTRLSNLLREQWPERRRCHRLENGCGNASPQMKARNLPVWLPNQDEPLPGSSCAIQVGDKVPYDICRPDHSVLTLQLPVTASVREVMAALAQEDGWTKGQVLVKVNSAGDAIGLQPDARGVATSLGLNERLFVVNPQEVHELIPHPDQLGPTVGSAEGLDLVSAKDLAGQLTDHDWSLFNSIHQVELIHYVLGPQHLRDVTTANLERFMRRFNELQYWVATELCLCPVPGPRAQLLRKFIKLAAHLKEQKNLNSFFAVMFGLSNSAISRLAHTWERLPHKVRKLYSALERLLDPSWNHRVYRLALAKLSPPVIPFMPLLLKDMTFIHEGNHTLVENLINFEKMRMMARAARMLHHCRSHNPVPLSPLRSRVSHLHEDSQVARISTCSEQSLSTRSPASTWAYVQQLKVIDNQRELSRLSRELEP
For `O=S1(=O)CC2(N3CCOCC3)CCCCCCC21` (configuration not stated), the Potency was “inactive”. In the case of `Cc1cc(C)cc(NC(=S)NC2CC3CCCC(C2)N3Cc2cccs2)c1` (configuration not stated), the Potency is reported as inconclusive [inhibitor, full curve, poor fit]. `O=C1NC(=S)NC(=O)C1=Cc1ccc(OCC(=O)N2CCCC2)cc1` was tested, and the Potency was inconclusive [inhibitor, single point]. For `CN(C[C@H](Cc1ccccc1)N(C[C@H](Cc1ccccc1)N(CCC(C)(C)C)N=O)N=O)N=O`, the Potency was inconclusive [inhibitor, partial curve]. In the case of `COc1ccc(C2/C=C\CN(C(=O)Oc3ccc(C(F)(F)F)cc3)CC(=O)N2Cc2ccc(F)cc2)cc1` (configuration not stated), the Potency is reported as inconclusive [inhibitor, partial curve]. For `C=CCN1C(=O)NC(=O)/C(=C/c2ccc(N(C)C)c(Br)c2)C1=O`, the Potency was “inactive”. `CCNC(=O)N1c2ccccc2Sc2ccccc21` was tested, and the Potency was inconclusive [inhibitor, single point]. `O=C(C(=O)N1CCc2ccccc2C1)c1cn(CC(=O)N2CCCCC2)c2ccccc12` was tested, and the Potency was inconclusive [inhibitor, partial curve, poor fit]. With `CN1CC[C@@]2(C)c3cc(O)ccc3N(C)[C@@H]12` the Potency was inconclusive [inhibitor, partial curve]. For `O=c1c2ccccc2c(C=Nc2ccc(O)cc2)c(O)n1Cc1ccccc1`, the Potency was inconclusive [inhibitor, partial curve]. With `O=C1NC(=S)NC(=O)C12C(c1ccccc1)NC(=S)NC2c1ccccc1` (configuration not stated) the Potency was inconclusive [inhibitor, partial curve]. For `COC(=O)C1=C(c2ccc(OCc3ccccc3)cc2)C[C@@H]2CC[C@H]1N2C(=O)NC1CCN(Cc2ccccc2)CC1`, the Potency was inconclusive [inhibitor, single point]. For `CN1CCN(c2ncc(C=O)s2)CC1`, the Potency was “inactive”. `Fc1ccccc1CNC1CN2CCC1CC2` (configuration not stated) was tested, and the Potency was inconclusive [inhibitor, single point]. `CC1(C)CC(=O)C2=C(C1)OC(N)=C([N+](=O)[O-])C2c1ccc(C#N)s1` (configuration not stated) was tested, and the Potency was inconclusive [inhibitor, partial curve, poor fit]. In the case of `COc1cc2c(ccc3c4cc(OC)c(OC)cc4c[n+](C)c23)cc1O`, the Potency is reported as “inactive”. In the case of `C/C(=N\N1CCCCCC1)c1c(O)n(-c2ccccc2)c(=O)[nH]c1=O`, the activity change, negative = inhibition is reported as inconclusive: -17.5% [inhibitor]. For `COC(=O)C1=C(c2ccc(C(C)=O)cc2)C[C@@H]2CC[C@H]1N2C(=O)N1CCC(O)(c2ccc(Cl)cc2)CC1`, the Potency was inconclusive [inhibitor, partial curve, poor fit]. For `O=C1NC(=O)N(c2ccccc2)C(=O)/C1=C/c1ccc([N+](=O)[O-])s1`, the Potency was inconclusive [inhibitor, partial curve]. With `CC(C)CS(=O)(=O)C1=NN2C(=N)/C(=C\c3ccc(OC(=O)c4ccco4)cc3)C(=O)N=C2S1` the Potency was inconclusive [inhibitor, partial curve, poor fit]. In the case of `COc1cccc(C(=O)C2CCCN(Cc3ccc(F)cc3)C2)c1` (configuration not stated), the Potency is reported as inconclusive [inhibitor, single point]. `O=C(O)COc1ccccc1` was tested, and the Potency was “inactive”. For `Nc1c(C(=O)NCCN2CCOCC2)c2nc3ccccc3nc2n1Cc1ccccc1`, the Potency was inconclusive [inhibitor, single point]. `C#CCOCCOCCOCCNc1nc(N2CCN(C(=O)CCCCCCCCCCNC(=O)[C@H]([C@@H](C)CC)n3cc(CCCCN=C(N)N)nn3)CC2)nc(N2CCN(C(=O)CCCCCCCCCCNC(=O)[C@H](CO)n3cc(CCCCCN)nn3)CC2)n1` was tested, and the Potency was inconclusive [inhibitor, partial curve]. For `Cc1nc2c(=O)n(C)c(=O)nc-2n(C)n1`, the Potency was active: 100 µM. `O=C1NC(=S)NC(=O)C1=Cc1cccn1-c1ccc(O)cc1` was tested, and the Potency was inconclusive [inhibitor, partial curve]. In the case of `O=C1C(=O)c2ccccc2-c2ccccc21`, the Potency is reported as active: 8.91 µM. In the case of `COc1cc2c(cc1OC)-c1c(OC)c(OC)cc3c1[C@H](C2)N(C)CC3`, the Potency is reported as inconclusive [inhibitor, single point]. In the case of `COC(=O)c1cncn1C(C)c1ccccc1` (configuration not stated), the Potency is reported as “inactive”. In the case of `c1cc(C2N3CCCN2CC3)ccn1` (configuration not stated), the Potency is reported as “inactive”. With `CNCC[C@H](Oc1ccc(C(F)(F)F)cc1)c1ccccc1` the Potency was inconclusive [inhibitor, partial curve, poor fit]. With `O=c1[nH]c(=O)n(Cc2ccccc2)c(O)c1/C=C1\C=Nc2ccccc21` the Potency was inconclusive [inhibitor, single point]. `Cc1ccc(C(=O)Oc2cc(N)n(S(=O)(=O)c3ccc(F)cc3)n2)cc1` was tested, and the Potency was inconclusive [inhibitor, single point]. `COc1cccc(NP(=O)(Oc2ccccc2)Oc2ccccc2)c1` was tested, and the activity change, negative = inhibition was inconclusive: -21.4% [inhibitor]. For `CC1=C(C)CN2CC(C#N)=C(N)C2C1` (configuration not stated), the activity change, negative = inhibition was inconclusive: -30.8% [inhibitor]. `C=CCN1C(=O)NC(=O)/C(=C\c2ccc(-c3ccccc3[N+](=O)[O-])o2)C1=O` was tested, and the Potency was “inactive”. In the case of `CN1CCN(Cc2cc(=O)n3ccsc3n2)CC1`, the Potency is reported as inconclusive [inhibitor, single point]. In the case of `CCOC(=O)COc1ccc(/C=C2\C(=O)NC(=S)N(c3ccc(OC)cc3)C2=O)cc1OC`, the Potency is reported as “inactive”. For `N#CC(C#N)=Cc1ccc(C=C(C#N)C#N)cc1`, the Potency was inconclusive [inhibitor, partial curve]. With `CC1=NN(c2ccccc2)C(=O)/C1=C/c1c(O)[nH]c(=O)[nH]c1=O` the Potency was “inactive”. `N#Cc1ccc(Cn2cc(C(=O)c3ccco3)c3ccccc32)cc1` was tested, and the Potency was inconclusive [inhibitor, full curve, poor fit]. For `O=C(Cn1cnc2ccccc2c1=O)NCCC(=O)N1CCC2(CC1)OCCO2`, the Potency was inconclusive [inhibitor, single point].

From PubChem BioAssay AID720709 (National Center for Advancing Translational Sciences (NCATS), 2013)
Also: nearly all actives have a fitted effect of over 50% in size.
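For activity change, negative = inhibition in this document: plate controls were vehicle for no effect and positive control for full effect.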
Potency is read from the fitted curve at half-maximal effect; tags tell the direction and shape of the fitted curve.
